In the supplement of paper PMC11417369:
Some of the results follow.

Test system: PfSIP2 AP2 domain 1 (GST-tagged)
Experiment: gcPBM binding intensity (ln(normalized median fluorescence intensity)); higher = stronger DNA binding
Outline: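 Alexa488 anti-GST antibody, scanned at 488 nm, detected GST-tagged P. falciparum DNA-binding domains that had been expressed in E. coli and incubated for 1 h on an Agilent 4 × 180k array. The array carried primer-extended double-stranded 36-bp intergenic genomic probes and negative controls. Binding intensity is the highest Masliner-normalised natural-log median intensity across replicate spots of either orientation of each probe.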

Row | Sequence | gcPBM binding intensity (ln)
1 | ATAACCTAATAATACACACACATGAATATAAATAAC [CACACA_site6584] | 7.28
2 | ATATATATTTTATACGCATGTAATTATTATGTGGTC [TGCATGCA_site45] | 7.31
3 | AAACAATTTGGGTGTACACATGATACGTTCGATGAG [CACACA_site5160] | 7.18
4 | ATATTATACATTTATACACACATAAAAAGACAAAAA [CACACA_site3565] | 7.2
5 | TGTAATATTTTTCATGCATGCTCTTCTTTTACATAA [TGCATGCA_site144] | 6.96
6 | ATAATTTATATTACTTGTACATATTTATATGAACGA [XGTACX_site3610] | 6.86
7 | TATATTAAACAATATACACACATTAATGTATCCATA [CACACA_site5523] | 6.86
8 | TTATATATATATATATGTACACATATATAACATGAT [XGTACX_site6643] | 7.43
9 | CATAAATAATATATTTGTACGAATAAAATTTGTTCA [XGTACX_site3445] | 6.74
10 | TAAAACAATATAAAATGTACAGAATTTTTTTTTCTT [XGTACX_site6820] | 6.7
11 | TTCTTTTATGATAATTGTACCCTTTTTAAAAAGAAA [XGTACX_site7815] | 7.27
12 | ATAATGAAAAGAAAGGGTACAAAAAAAAAAAAAAAT [XGTACX_site3350] | 6.89
13 | AACTGATTATTTTTTTGTACATATATAATAATATAT [XGTACX_site5953] | 7.13
14 | TTTTTTTTCAATGGCACACATTTTAGATTTATGCTT [CACACA_site4735] | 7.88
15 | TTTTTATTTATTCTCTTTGTATTATAAAATAAAAGC [XGTACX_negctrl_site253] | 7.06
16 | ATATATATATAATGTTGTACATAAATATTATATTTA [XGTACX_site5225] | 8.82
17 | GGAAAAATATAATATGCATGTTATTATTTTTTTATA [TGCATGCA_site836] | 6.77
18 | TATGTATATACATAAACATGCAAAAACAATATCTTA [TGCATGCA_site950] | 6.85
19 | TATTTATTTATTTAATGTACAAAAGAACAAGAATTT [XGTACX_site2248] | 6.95

Row | Sequence | gcPBM binding intensity (ln)
20 | TTCTTCTGTTTTATTACACACCATTTTGTGTATACA [CACACA_site7059] | 7.42
21 | TCTTAATCGTATTATTACTATAATTATATAATATTT [CACACA_negctrl_site1594] | 7.13
22 | ATATATATATTATATAGTACAGAGTATACTATTATA [XGTACX_site1893] | 7.87
23 | CAAAAAGGAATGTATGCACACAATTGATTTTAACTC [CACACA_site1468] | 8.51
24 | AACGATATATGTACTACACACATTATGTCATCCTAT [CACACA_site2464] | 7.21
25 | GATCTAAAAACAAGGTGTACAAGAAAAAAAAAAAAA [XGTACX_site7577] | 6.98
26 | ACAAAAGGGGAATACACACACATATATATATATATA [CACACA_site2215] | 9.33
27 | GCCCACACGAACCATGCATGCCACGATATAAACCAC [TGCATGCA_site322] | 7.24
28 | TTTTTTACAGAAAAATATTAAAATTATAAATGTGAA [GTGCAC_negctrl_site451] | 7.03
29 | TAATATATATATATGGTGCATTTAATTTATATATAA | 10.8
30 | TATGAAATTTTAATTACACACAGGAAAATAAAATGT [CACACA_site8430] | 6.96
31 | TTATAATATATATAAAAGAAAAAAAATTATAATATA [CACACA_negctrl_site90] | 6.69
32 | TTATTTTTCTTTATTGGTACACACGAAAAAAAAATT [XGTACX_site6482] | 7.27
33 | ATATATATTTTTAATTGTACAGAATTAAAAATATTG [XGTACX_site1967] | 6.92
34 | CTTTAACCATATATGTGTACGTATTTTATTCATATT [XGTACX_site6212] | 7.42
35 | AAAAAAAAAAAAAGCTGTACAATTAAAGACAAACCT [XGTACX_site8610] | 7.14
36 | AAGAAGTGGAAAATATACTCCACATATATATATGTG [CACACA_negctrl_site304] | 7.56
37 | AAAAAACAATTTGTGTGTACACATGATACGTTCGAT [XGTACX_site4112] | 7.25
38 | TATATAGTAAATATTTGTACATAATAAAATATATGT [XGTACX_site7873] | 7

Row | Sequence | gcPBM binding intensity (ln)
39 | ATCTTAATTTTTGAAGGTACACACTAATATATTAAA [XGTACX_site2292] | 7.12
40 | ATATTTTATTATATAGGTACACATAATTTCATGTAA [XGTACX_site415] | 7.11
41 | AATAAATAAAAATGCACACAGTTAACATGTTGAATT [CACACA_site4795] | 7.07
42 | TTTTGTACATCTTTTGCACACGTAATGTTATTATAA [CACACA_site1259] | 7.34
43 | TTTTTTTTTTATTAATGTACAAGATATATAATGTTA [XGTACX_site4809] | 6.84
44 | TATAATATAAAAATGAGTACATAGATAATAATATTT [XGTACX_site2376] | 7.19
45 | AATGATACACATATATGTACATATATATATATATAT [XGTACX_site5391] | 9.46
46 | TGCAATATATCAAAGTGTACATGCAATAAAAAAAAA [XGTACX_site652] | 7.05
47 | ATATGGATTATACATACATGCATACATACATACATA [TGCATGCA_site475] | 7.1
48 | TATATACATATATGCACACAAAAAAATATATATTTT [CACACA_site1729] | 7.3
49 | AAATGTAGAAAAAGTTGTACACTGTTTCAAAAATAA [XGTACX_site1063] | 6.97
50 | AAAATTTAATATAATGCACACATAAAACAAAAACAA [CACACA_site8071] | 8.2
51 | TTTAAAGTTTTATACACACACCAAAGTTATTCTAAT [CACACA_site6432] | 6.78
52 | CAATGAAAAATAATGAGTACATAGTTAATAAAGATA [XGTACX_site72] | 6.97
53 | ATAATTAAAATTAAATGTACTTTTTTATATATTTTT [XGTACX_site2209] | 6.82
54 | AATTTCTTTTTCGATATACACACTGTATGTGTCTAA [CACACA_site3975] | 6.94
55 | AACGTGTATTTATATTGTACACATTCATACATCAAA [XGTACX_site3644] | 7.1
56 | GTAGTGGTTGAATATACACACATATATATATATATA [CACACA_site2651] | 9.4
57 | AGATAATAGGTTACTTGTACATATAAATAAATATAT [XGTACX_site158] | 6.96
